Article PMC4336329 (PLoS ONE, 2015)
Hit rate of the full screen: of about 310,000 compounds, about 14,000 (4.5%) showed an effect of 50% or more. Effects have a minus sign here. The list shows a part of the results.

biological target: human ether-à-go-go-related gene (hERG) potassium channel (human, UniProt Q12809); experiment: primary screen, population patch clamp on CHO cells stably expressing hERG
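Further: peak tail current of the secondary pulse compared with the same well before compound.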

Chain of human ether-à-go-go-related gene (hERG) potassium channel (Q12809 whole entry, looked up): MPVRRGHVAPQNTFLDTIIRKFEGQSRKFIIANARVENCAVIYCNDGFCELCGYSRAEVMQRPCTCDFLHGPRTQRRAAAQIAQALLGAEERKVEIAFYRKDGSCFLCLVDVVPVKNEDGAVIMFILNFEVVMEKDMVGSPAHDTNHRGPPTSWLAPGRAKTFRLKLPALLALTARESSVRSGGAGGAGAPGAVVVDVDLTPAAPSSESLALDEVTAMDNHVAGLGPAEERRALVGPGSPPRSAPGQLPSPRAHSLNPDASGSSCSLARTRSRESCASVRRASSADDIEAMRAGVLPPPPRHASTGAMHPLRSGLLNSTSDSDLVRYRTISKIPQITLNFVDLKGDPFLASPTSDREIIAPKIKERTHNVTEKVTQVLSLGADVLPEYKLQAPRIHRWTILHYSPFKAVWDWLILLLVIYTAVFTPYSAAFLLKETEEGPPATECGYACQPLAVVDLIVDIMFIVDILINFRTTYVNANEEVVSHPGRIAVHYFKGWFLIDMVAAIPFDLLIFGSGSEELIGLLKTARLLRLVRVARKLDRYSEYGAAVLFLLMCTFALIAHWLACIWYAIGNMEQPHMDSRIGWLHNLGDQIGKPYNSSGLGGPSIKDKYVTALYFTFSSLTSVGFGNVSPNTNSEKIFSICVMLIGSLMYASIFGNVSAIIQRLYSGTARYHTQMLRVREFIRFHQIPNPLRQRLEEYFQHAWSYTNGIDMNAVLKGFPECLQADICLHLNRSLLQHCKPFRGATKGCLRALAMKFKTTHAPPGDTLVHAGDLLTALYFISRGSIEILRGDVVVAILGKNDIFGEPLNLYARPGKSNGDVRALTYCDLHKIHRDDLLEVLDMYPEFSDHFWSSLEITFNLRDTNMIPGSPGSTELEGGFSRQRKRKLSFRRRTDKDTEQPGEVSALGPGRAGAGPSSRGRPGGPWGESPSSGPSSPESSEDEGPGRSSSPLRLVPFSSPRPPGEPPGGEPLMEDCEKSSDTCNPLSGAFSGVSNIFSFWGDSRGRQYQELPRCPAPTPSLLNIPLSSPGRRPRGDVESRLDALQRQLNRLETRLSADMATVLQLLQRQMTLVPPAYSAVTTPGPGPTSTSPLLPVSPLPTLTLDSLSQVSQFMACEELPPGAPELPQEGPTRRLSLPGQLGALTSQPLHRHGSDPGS

Compound	hERG current change (%, negative = inhibition) at 10uM [%]
[O-][n+]1onc2c1CCc1c-2nc(-c2ccccc2)n1OCc1ccccc1	3.28
Cc1ccnc(NC(=S)NC(=O)/C=C/c2ccco2)c1	13.5
CC1Nc2ccccc2C(=O)N1NS(=O)(=O)c1ccccc1 (stereo not drawn)	-1.58
COc1ccc(C)cc1NC(C)C(=O)NC(=O)NC1CCCCC1 (stereo not drawn)	13.2
COc1cc(C(=O)NCC(=O)Nc2c(C)cccc2C)ccc1OCc1ccccc1	-10.9
Cc1csc2c(=O)sc(NC(=O)c3cccs3)nc12	4.98
CCn1c(=O)c([N+](=O)[O-])c(N2CCSCC2)c2ccccc21	-3.07
CCC(=O)c1ccc(OC(=O)c2cnccn2)cc1	23.6
COC(=O)CCC(=O)Nc1ccccc1C(N)=O	23.1
O=C(CSc1nccc(=O)[nH]1)NCc1ccc2c(c1)OCO2	27.3
CC1CCC(NC(=O)C2CC(=O)N(c3ccc4c(c3)OCCO4)C2)CC1 (stereo not drawn)	8.92
COC(=O)c1cc(-c2ccc(S(=O)(=O)N3CCCCC3)cc2)c(C(F)(F)F)s1	-8.2
O=C(Nc1nc2ccsc2c(=O)s1)c1ccc(F)cc1Cl	8.09
CCOC(=O)C1=C(c2ccc(OC)cc2)OC(N)=C(C#N)C1c1cccnc1 (stereo not drawn)	1.19
Nc1ccc(S(N)(=O)=O)cc1N.O=S(=O)(O)O	22.3
CC(C)COc1ccc(C(=O)OC2CC(C)(C)OCC2CN(C)C)cc1.Cl (stereo not drawn)	-38.1
CCOC(=O)c1ccc(NC(=O)CN2C(=O)CNC2=O)cc1	17.4
O=c1ccc(-c2ccc(S(=O)(=O)Nc3ccc(F)cc3)s2)n[nH]1	-14.8
COc1ccc(OC2CCN(S(=O)(=O)c3ccc(F)cc3)CC2)cc1	6.65
NC1=Nc2cccc3cccc1c23	21.3
O=C(CN1C(=O)NC2(CCSC2)C1=O)N1CCN(c2ccc(F)cc2)CC1 (stereo not drawn)	-24.6
Cc1cccc(-c2cccc(NC(=O)C3CCCN(C(=O)c4csc(C)n4)C3)c2)c1 (stereo not drawn)	-30.6
CC(C)(C)NC(=O)C1CCC(CNS(=O)(=O)c2cccc3nsnc23)CC1 (stereo not drawn)	-8.07
COc1ccc(-n2c(COc3ccccc3)nnc2SCC(N)=O)cc1	0.9

Compound	hERG current change (%, negative = inhibition) at 10uM [%]
c1ccc(-c2cncnc2)nc1	3.74
CCOC(=O)n1c(=O)[nH]c2ccc(Br)cc21	2.18
O=C(/C=C/c1ccc(Cl)cc1)NC(=S)Nc1ccccc1C(=O)O	13.3
Cc1nc(CSc2nnc(C)s2)cs1	-12.9
O=C(NCCOc1ccccc1)C1CCCCC1	20
COc1cc(OC)cc(C(=O)Nc2ccccc2-c2nnn(CC(N)=O)n2)c1	2.92
CCOC(=O)c1ccc(N=CC2=C(O)CC(C)(C)CC2=O)cc1	-1.3
CN(C(=S)NC(=O)c1ccccc1Br)C1CCCCC1	-13.5
Oc1c(N=Nc2ccccc2)sc2ccccc12	-1.59
COC(=O)c1ccsc1NC(=O)C1COc2ccccc2O1 (stereo not drawn)	3.5
CC1(C)CC(=O)C(C(=S)Nc2ccccc2)=C(NCCN2CCOCC2)C1	-36.9
COc1ccc(C(C(=O)NC(C)(C)C)N(CCC(C)C)C(=O)CCC(=O)Nc2cc(C)on2)cc1 (stereo not drawn)	6.67
CCOC(=O)c1c(OCCO)nn(-c2ccc(Cl)cc2)c1N	-51.8
Cl.NC1=NC2(CCCCC2)N(c2ccc(F)cc2F)C(N)=N1	14
CN(CC(=O)NC1CCCCC1)S(=O)(=O)c1ccc(Cl)cc1	-0.709
COc1ccc(CSc2nc(CSC)cc(N3CCOCC3)n2)cc1	-7.91
O=C(Nc1ccc2c(c1)OCCO2)C1CCN(S(=O)(=O)c2cccc3nsnc23)CC1	11.1
COc1ccc(C(=O)NCCn2ccc3ccccc32)cc1	-15.3
Cc1ccoc1C(=O)N1CCCC(CO)(Cc2ccc(F)cc2)C1 (stereo not drawn)	-8.01
CC(=O)/C=C1\SC(CC(=O)O)C(=O)N1c1ccccc1 (stereo not drawn)	13.9
O=C(NC1CCCC1)C1c2ccccc2C(=O)N1CCCN1CCOCC1 (stereo not drawn)	-5.42
Nc1ccc(Sc2nc3ccccc3[nH]2)cc1	-0.417
FC(F)(F)c1cc(-c2ccc(Cl)cc2)nc2ncnn12	-16.2
CCc1cc2c(=O)n(-c3ccc(C)cc3)cnc2s1	-8.64

Compound	hERG current change (%, negative = inhibition) at 10uM [%]
Nn1c(SCc2nc3ccccc3[nH]2)nnc1C1CCCCC1	-4.65
CC(=O)c1ccc(N(C(=O)c2ccco2)C(C(=O)NC2CCCC2)c2cccs2)cc1 (stereo not drawn)	-40.4
CCOC(=O)C1=C(C)OC(N)=C(C#N)C1C1CCCCC1 (stereo not drawn)	4.26
CCOC(=O)c1c(-c2ccncc2)csc1N	3.63
Cc1ccc(C23CC4CC(CC(C(N)=O)(C4)C2)C3)cc1	8.28
COC(=O)c1ccc(CS(=O)(=O)c2ccccc2C)o1	1.93
Cc1noc(C)c1COc1cccc(C(=O)Nc2ccccc2)c1	-7.11
CCOC(=O)c1c(C)[nH]c(C)c1C(=O)COC(=O)c1cc(OC)cc(OC)c1	-36.3
Cc1cc(C)n(-c2nnc(C)c(=O)[nH]2)n1	-7.49
Cc1cccc(NCc2ccc(O)c3ncccc23)c1C	15
CC(C)=C(NC(=O)c1ccccc1)C(=O)NC(Cc1ccccc1)C(=O)O (stereo not drawn)	15.9
COc1ccc(OC2C(=O)N(c3ccc(C)c(C)c3)C2c2ccc(OC)c(OC)c2)cc1 (stereo not drawn)	-28.1
O=C(COC(=O)C1CC2CCCC(C1)C2=O)c1cccc(Br)c1 (stereo not drawn)	-31.7
COc1ccc(OC)c(NC(=O)c2cc(-c3cc(C)ccc3O)n[nH]2)c1	19
COC(=O)c1cccc(NS(=O)(=O)c2cccs2)c1C	2.1
CCOC(=O)c1ccc(N2C=C(C(=O)OC)C(c3cccc(O)c3)C(C(=O)OC)=C2)cc1	11
COC(=O)Cn1c(O)c(N=NC(=O)CNC(=O)c2ccncc2)c2ccccc21	9.25
CCOc1ccccc1-n1c(CN2CCN(C(=O)c3ccco3)CC2)nc2ccccc2c1=O	-26.2
CC(NC(=O)C(C)(C)C)C(c1cccs1)N1CCN(Cc2ccccc2)CC1 (stereo not drawn)	-14.3
Fc1ccccc1-c1csc(=Nc2cccnc2)n1CCCn1ccnc1	-60.1
COC(=O)c1c(NC(=O)c2ccc(C)cc2)sc(Cc2ccccc2)c1C	16.7
O=C(O)C1CC(c2ccccc2)=NO1 (stereo not drawn)	3.78
CCCCn1c2c(c(=O)n(C)c1=O)C(CC(=O)OCC(=O)Nc1cccc(C(F)(F)F)c1)C(=O)N2 (stereo not drawn)	-5.56
O=C(Nc1ccc(Cl)c([N+](=O)[O-])c1)c1ccncc1	-22.6

Compound	hERG current change (%, negative = inhibition) at 10uM [%]
COc1ccc(-c2nc(CSCC(=O)N3CCc4ccccc4C3)c(C)o2)cc1OC	-11.9
CCc1nc2ccccc2c(C(=O)OCC(=O)C(C)(C)C)c1C	-15
CCOC(=O)C1CCN(C=C2C(=O)N(C)C(=S)N(C)C2=O)CC1	-7.03
COc1cccc(CNC(=O)CCn2ccc3cc(S(=O)(=O)N4CCCC4)ccc32)c1	-7.87
COc1ccccc1N1CCN(C2CC(=O)N(C)C2=O)CC1 (stereo not drawn)	14.6
NS(=O)(=O)c1ccc(CCNC(=O)c2ccc(CS(=O)(=O)c3ccc(Br)cc3)o2)cc1	27
COc1ccc(COC(=O)N/N=C(\C)CC(=O)Nc2c(C)cc(C)cc2C)cc1	5.92
CCC(C(=O)OC)n1cnc2c(cnn2-c2ccc(Cl)cc2)c1=O (stereo not drawn)	2.26
CCOC(=O)c1cc2c(s1)-c1ccccc1CC2	11.3
COc1ccccc1NC(=S)N(Cc1cccs1)C1CCCC1	-10.2
Cc1ccc(N(CC(=O)NCc2ccc(F)cc2)C(=O)c2csnn2)cc1C	-2.25
N#Cc1cn(CCOc2ccc(F)cc2)c2ccccc12	1.56
O=C(Cn1c(-c2cscn2)nc2ccccc21)Nc1ccc2ccccc2c1	0.712
Cc1ccc(/C=C/C(=O)OCC(=O)Nc2ccc3[nH]c(=O)[nH]c3c2)o1	2.52
COc1ccc(-c2nc(CS(=O)CC(=O)NCCN3CCCCCC3)c(C)o2)cc1OC (stereo not drawn)	-0.18
COc1ccc(CNC(=O)Cn2cc(C(F)(F)F)ccc2=O)cc1OC	20.3
Cc1c(C(=O)Nc2nnc(C3CC3)s2)oc2ccccc12	3.16
Cc1cc(N2CCOCC2)nc2cc(O)ccc12	0.19
COc1ccccc1CNC(=O)CSc1nn2c(=O)c(C(C)(C)C)nnc2s1	13.3
CCc1nccn1C(=O)c1cnn2c(C(F)F)cc(-c3ccc(C)cc3)nc12	-14.5
CCCCC(O)(C(NC=O)C(=O)OC)C(F)(F)F (stereo not drawn)	10.3
